Reference: the supplement of paper PMC10126150
Sequences with one replicate were seen in a single cluster, so their values are uncertain.
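Note: ATP exposure 15 min at 22 °C before imaging.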

Each sequence was assayed on ATP (assay: switch fluorescence ratio, 500 uM ATP over buffer (Cy3 cluster intensity, sum of 5 cycles each) (fold (ratio)); higher = stronger signal-on switching upon ATP binding; sequences stand for … in TCGTCGGCAGCGTCAGATGTGTATAAGAGACAGTTTTTTTTTTTTTTTTTTTTTTTTT…TC). Settings: aptamer strand: ATP DNA aptamer (quencher-CACCTGGGGGAGTATTGCGGAGGAAGG + anchor), 100 nM annealed; ATP concentration: 500 uM; one replicate.
Summary of the method: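 After annealing to 100 nM quencher-labelled ATP aptamer, Cy3-labelled switching-strand clusters on a modified Illumina MiSeq flow-cell were imaged in selection buffer. A second image followed after 15 min with 500 uM ATP at 22 °C, and five such buffer/ATP cycles were done, each separated by NaOH stripping and re-annealing. The fluorescence ratio, averaged per switch-domain sequence, is summed target-cycle over summed buffer-cycle Cy3 intensity per cluster, with clusters outside 100-1000 RFU excluded.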
CTCTCGCGGT gave a switch fluorescence ratio of 2.01. In the case of TATTATTAGT, the switch fluorescence ratio is reported as 1.04. AGTCCGCGCG showed a switch fluorescence ratio of 1.06. With CTTGTAGGAC the switch fluorescence ratio was 0.996. Work on ATGCCCGGCA yielded a switch fluorescence ratio of 0.951. GCGGAGAACA showed a switch fluorescence ratio of 0.997. In the case of TTTGTCACGC, the switch fluorescence ratio is reported as 1.03. TTTCCGCGTT gave a switch fluorescence ratio of 1.06. In the case of GGGGTACTCC, the switch fluorescence ratio is reported as 1.03. ACACGGTATT gave a switch fluorescence ratio of 1.15. AAGTTAAAGA was tested, and the switch fluorescence ratio was 1.07. For TTTGTTGCG, the switch fluorescence ratio was 0.994. Sequence TAGCGGTGCA has a switch fluorescence ratio of 1.03. Work on AAACGATCAC yielded a switch fluorescence ratio of 1.48. GGGCCCTACC gave a switch fluorescence ratio of 1.06. Sequence GACGGCGGGG has a switch fluorescence ratio of 1.05. CAGGTCAGAT was tested, and the switch fluorescence ratio was 0.993. For CTGGAAGGTT, the switch fluorescence ratio was 1.01. Work on CTTTTTCGCA yielded a switch fluorescence ratio of 1.08. In the case of GGGTCCTA, the switch fluorescence ratio is reported as 0.993. With CTGGGCTGTG the switch fluorescence ratio was 0.945. With TTAAAATTTG the switch fluorescence ratio was 1. AGACGCTGAT was tested, and the switch fluorescence ratio was 1.05. With ATTTGGGTTC the switch fluorescence ratio was 0.985. ATGACTACTG gave a switch fluorescence ratio of 1.07. Work on CAATAACAGT yielded a switch fluorescence ratio of 0.99. Sequence AAAGCTTCTG has a switch fluorescence ratio of 1.04. TGGTTAGGCT showed a switch fluorescence ratio of 1.05. Sequence TGTGGTCAGC has a switch fluorescence ratio of 0.995. In the case of ATATCCATGG, the switch fluorescence ratio is reported as 0.97. In the case of GGTTCAGAGT, the switch fluorescence ratio is reported as 1.01. GCCGGGTTGT gave a switch fluorescence ratio of 0.973. For GTCGAAGGGG, the switch fluorescence ratio was 1.05. Sequence GATCGTAGGT has a switch fluorescence ratio of 0.99. ACACGACGAT was tested, and the switch fluorescence ratio was 1.17. TAACGGTT gave a switch fluorescence ratio of 1.01. Work on CTAGCCAAGC yielded a switch fluorescence ratio of 1.06. For TGCAACTCTG, the switch fluorescence ratio was 0.955. In the case of GGATAGTATT, the switch fluorescence ratio is reported as 0.999. TTTGTTTAGT gave a switch fluorescence ratio of 1.01. AGCTAATT gave a switch fluorescence ratio of 0.987. CAACAACATG showed a switch fluorescence ratio of 1.02. CTGAGGCAGC was tested, and the switch fluorescence ratio was 1.9. Sequence GTCCGTAATT has a switch fluorescence ratio of 2.21. In the case of TGGAGGCGAT, the switch fluorescence ratio is reported as 1.31. TAGTGGTGTT gave a switch fluorescence ratio of 1.03. AATGCTCTCT gave a switch fluorescence ratio of 0.996. With GAGTGGTAT the switch fluorescence ratio was 1.02. GTGTCATGGT gave a switch fluorescence ratio of 1. Sequence CTGTCATACA has a switch fluorescence ratio of 0.988. With AGGTGCTGAT the switch fluorescence ratio was 0.998. GAACGAGGTG was tested, and the switch fluorescence ratio was 1.02. AAGAATACTT showed a switch fluorescence ratio of 1.29. TGTTATGGGC showed a switch fluorescence ratio of 1.03. ACAAATGACG showed a switch fluorescence ratio of 0.992. In the case of AAGTGAGATT, the switch fluorescence ratio is reported as 1.03. TCTAGAAAGA was tested, and the switch fluorescence ratio was 0.978. With CGGGTTGAA the switch fluorescence ratio was 0.998. Work on TCTCGCGCAT yielded a switch fluorescence ratio of 3.65. ACTGACCTAC gave a switch fluorescence ratio of 1.43. In the case of AGTAAATAGC, the switch fluorescence ratio is reported as 1.01. With GGTCATATTC the switch fluorescence ratio was 1.02. Sequence TAGGACAGTA has a switch fluorescence ratio of 1.02. CATGAGTTTG was tested, and the switch fluorescence ratio was 1.02. GAAGCCAGAA was tested, and the switch fluorescence ratio was 1.03. TAACCTGGTG gave a switch fluorescence ratio of 1.69. With CAAAGGGAAT the switch fluorescence ratio was 1.02. With GAACGTCGAA the switch fluorescence ratio was 0.974. CTAGCGGGTC gave a switch fluorescence ratio of 0.987. With AGTGTTTTAC the switch fluorescence ratio was 1. TTCAGAGATC showed a switch fluorescence ratio of 0.939. CATACTCTTT gave a switch fluorescence ratio of 1.05. For ACATGATTCA, the switch fluorescence ratio was 1. CCTAGAGCCT was tested, and the switch fluorescence ratio was 1.15. For GAGCTGAAAT, the switch fluorescence ratio was 0.997. In the case of CAGTGGTTCT, the switch fluorescence ratio is reported as 0.993. With TCTTCAATCA the switch fluorescence ratio was 1.02. Sequence GACAAGGGGA has a switch fluorescence ratio of 1.04. In the case of ACCTTTTGTC, the switch fluorescence ratio is reported as 1.05. Work on CTATTATTTT yielded a switch fluorescence ratio of 0.994. For GCGTCATAAA, the switch fluorescence ratio was 0.975. ACCAGATTCT showed a switch fluorescence ratio of 1. Work on ACGCGCGTAT yielded a switch fluorescence ratio of 0.953. With ATTAAACTCT the switch fluorescence ratio was 1.09. Work on CTGTAGTTCG yielded a switch fluorescence ratio of 1.06. CAGCGTGGGC showed a switch fluorescence ratio of 0.996. TGAAAGGGGC showed a switch fluorescence ratio of 1.07. In the case of TGGATTTGAC, the switch fluorescence ratio is reported as 1.06. GATACAATA gave a switch fluorescence ratio of 1.05. With TAAAGAACTT the switch fluorescence ratio was 1.1. ATCTTGGTCG showed a switch fluorescence ratio of 1. In the case of ATTCCCAGCG, the switch fluorescence ratio is reported as 1.17. Work on GAGTATGGTC yielded a switch fluorescence ratio of 0.999. ACTTATATTT was tested, and the switch fluorescence ratio was 0.983. In the case of TCATCGTGTT, the switch fluorescence ratio is reported as 0.954. Work on AACGTCCTGT yielded a switch fluorescence ratio of 1.04. With GTTTTGAGGC the switch fluorescence ratio was 1.03. In the case of TGACACAATT, the switch fluorescence ratio is reported as 1.1. GTATCCGATG gave a switch fluorescence ratio of 1.02. In the case of TTTTACACG, the switch fluorescence ratio is reported as 0.982. Sequence TCACGTCAAC has a switch fluorescence ratio of 1.36. TATTGTGAGC was tested, and the switch fluorescence ratio was 1.01. Work on ATGTTGCACG yielded a switch fluorescence ratio of 0.939. Sequence GCGAGTAGA has a switch fluorescence ratio of 1.03. In the case of GGAAAAAGAC, the switch fluorescence ratio is reported as 1.04. Work on TACCTATCT yielded a switch fluorescence ratio of 1.01. Work on GTAGTACGGG yielded a switch fluorescence ratio of 1.04. Sequence AATTTGGGAT has a switch fluorescence ratio of 1. Work on AACTGGAA yielded a switch fluorescence ratio of 1.06. Work on ACAGTGCAGG yielded a switch fluorescence ratio of 1. With AGCCCTTCTC the switch fluorescence ratio was 1.29. Sequence GTTCGTTATT has a switch fluorescence ratio of 0.984. With AGCAGTCTCT the switch fluorescence ratio was 1.09. GGCTCTATTT gave a switch fluorescence ratio of 0.927. Work on CTAAGGGTGC yielded a switch fluorescence ratio of 1.03. With GGTGACTAAT the switch fluorescence ratio was 0.945. AGGTCTGACA showed a switch fluorescence ratio of 0.985. TAAGCTAAGA gave a switch fluorescence ratio of 0.998. GTGTATAACG was tested, and the switch fluorescence ratio was 1.05. With ATATATAAGG the switch fluorescence ratio was 0.983. CAGCCATGCT gave a switch fluorescence ratio of 1.02. Sequence TGATGGACTG has a switch fluorescence ratio of 0.934. Work on TACAAACCGC yielded a switch fluorescence ratio of 1.16. TAACAGCGGG was tested, and the switch fluorescence ratio was 1. For GCATGGAAGT, the switch fluorescence ratio was 0.999. TCGTGCATAA showed a switch fluorescence ratio of 1.15. For GGCAATGCGG, the switch fluorescence ratio was 1.3. TAATTTAGCA showed a switch fluorescence ratio of 1. CTGGACAGCT showed a switch fluorescence ratio of 1.01. AGACAATGGT gave a switch fluorescence ratio of 1.02. GGGGACTTCA showed a switch fluorescence ratio of 1.06. In the case of CAGGAGCGGT, the switch fluorescence ratio is reported as 1.52. With TCGACTCGGA the switch fluorescence ratio was 1. Sequence TTGGAACCGC has a switch fluorescence ratio of 1.21. Work on ATCCTCTCTC yielded a switch fluorescence ratio of 1.07. CGGTGCGGGG gave a switch fluorescence ratio of 1.01. Sequence GATGCCCGGT has a switch fluorescence ratio of 1.08. GGATTCGCGG gave a switch fluorescence ratio of 1.07. AAGGTAATGT was tested, and the switch fluorescence ratio was 1.01. GCCGCACCTG showed a switch fluorescence ratio of 0.995. In the case of ATTGGTCCGG, the switch fluorescence ratio is reported as 0.993. With TTATAACGCG the switch fluorescence ratio was 1.02. With CTCCGTCCG the switch fluorescence ratio was 1.52. Sequence GGTAAGGTGC has a switch fluorescence ratio of 1.37. AAGCCTGAAT gave a switch fluorescence ratio of 0.978. AGTCTGGACA gave a switch fluorescence ratio of 1.02. CCCTGCGTCC showed a switch fluorescence ratio of 1.56. With GGGGTGTTCC the switch fluorescence ratio was 1.08. With AGTAAGTTC the switch fluorescence ratio was 1.07. Sequence AGACGCGGGA has a switch fluorescence ratio of 1.04. GCGCGCGTCT was tested, and the switch fluorescence ratio was 0.988. With CTAGCACATG the switch fluorescence ratio was 0.959. In the case of GTCCCAGTTT, the switch fluorescence ratio is reported as 0.993. CCTGCGTGAC showed a switch fluorescence ratio of 4.56. AACGACCAGC gave a switch fluorescence ratio of 1.14. In the case of AAGTAAGATG, the switch fluorescence ratio is reported as 0.954. Work on CTGGATCGC yielded a switch fluorescence ratio of 1.05. TGGCGCGTCC showed a switch fluorescence ratio of 1.01. In the case of AGGGATCAGA, the switch fluorescence ratio is reported as 1.03. For GGGTGGACGA, the switch fluorescence ratio was 0.952. CACTTCGAG was tested, and the switch fluorescence ratio was 0.994. CGTATGTTTA showed a switch fluorescence ratio of 0.992. TACGGTCCTT showed a switch fluorescence ratio of 1.06. TTGTAAAGAC gave a switch fluorescence ratio of 1.04. CAGACCCTAC showed a switch fluorescence ratio of 1.37. Sequence ATTTCAAGGG has a switch fluorescence ratio of 0.97. Work on TCTGTTGTCC yielded a switch fluorescence ratio of 1.03. In the case of CGATTCGCTG, the switch fluorescence ratio is reported as 0.974. For TGCTCCGTTT, the switch fluorescence ratio was 1.24. CGAGCACGAT was tested, and the switch fluorescence ratio was 1.15. In the case of TCAGAGCGCC, the switch fluorescence ratio is reported as 1.03. TGAACGAGAG gave a switch fluorescence ratio of 1. GGTGTCCTAG gave a switch fluorescence ratio of 0.995. In the case of CCCCGGTCAA, the switch fluorescence ratio is reported as 4.32. For TCCGTTAAA, the switch fluorescence ratio was 1.17. Work on AAAAAATCTT yielded a switch fluorescence ratio of 1. ATTCGCACAG gave a switch fluorescence ratio of 1.11. With TCTGCCGGGG the switch fluorescence ratio was 1. Work on GGCGCATGCA yielded a switch fluorescence ratio of 0.982. In the case of TTCGTGCAGC, the switch fluorescence ratio is reported as 1.05. Sequence CCGCCCTTTT has a switch fluorescence ratio of 1.93. Sequence TAGTACTT has a switch fluorescence ratio of 0.989. Work on CCGTTACTGA yielded a switch fluorescence ratio of 1.06. For GCAGGATCCT, the switch fluorescence ratio was 1.04. CAAGAGATCA showed a switch fluorescence ratio of 1.03. ATATCTTGGT showed a switch fluorescence ratio of 0.967. With GTTTTTACAT the switch fluorescence ratio was 0.998. Work on GCGAGATGGA yielded a switch fluorescence ratio of 1.04. ACGAGGTATG gave a switch fluorescence ratio of 0.851. For GTGTTTAGCG, the switch fluorescence ratio was 0.97. CATTAAATAA was tested, and the switch fluorescence ratio was 0.938. GCCAAACTTC was tested, and the switch fluorescence ratio was 1.02. ATGAGAACAG gave a switch fluorescence ratio of 1.02. CGGACGGTAT showed a switch fluorescence ratio of 1.16. For TAAGATTATG, the switch fluorescence ratio was 1.01. Sequence GCGGTTCTGG has a switch fluorescence ratio of 0.968. In the case of TAGACGGAGG, the switch fluorescence ratio is reported as 0.994. For CCACCCATAT, the switch fluorescence ratio was 1.66. In the case of TCAATGCGAG, the switch fluorescence ratio is reported as 1.07. CCCTGATTGG showed a switch fluorescence ratio of 1.04. For GTTCTACTGT, the switch fluorescence ratio was 0.984.
